Test results: PubChem BioAssay AID485297 (National Center for Advancing Translational Sciences (NCATS), 2010)
About 9,100 (2.8%) of roughly 320,000 compounds were called active. The inconclusive results got no clear call from the source; some entries with a clear call stand among them for comparison. Calls come from the whole dose curve; as a rule, active = well fitted activation curve with a large enough effect; inconclusive = small, poorly fitted or top-dose-only effect; inactive = no such curve, though single readings can be large or run the other way. Potencies of inconclusive entries are doubtful fits and often do not repeat.

assay: qHTS Assay for Rab9 Promoter Activators; details: Huh7 Rab9 promoter-luciferase reporter, luminescence, 24 h; series mostly up to 9.22 µM; activation, negative = inhibition: at the top concentration; note: nearly all actives have a fitted effect of over 60% in size; for activation, negative = inhibition: % of control where 0% means no effect
Outline: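 Luminescence from Amplite-detected luciferase (10 minutes, ambient) reports Rab9 promoter activation. Before that, stable Rab9-luciferase Huh7 cells (1500/well, reduced-serum OP-MEM I plus 10% FBS) were exposed to compound for 24 hours at 37C.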
Potency is the fitted concentration of half-maximal effect; tags give direction and shape of the fitted curve.

Potency, active:
CCOC(=O)Nc1sc2c(c1C#N)CCCC2 3.98 µM
COc1ccccc1NC(=O)c1ccc2[nH]c(C)c(C)c2c1 2.82 µM
CCN(CC)c1ccc(Nc2nc(-c3cccnc3)cs2)cc1 3.16 µM
O=C(Nc1ccc2c(c1)OCCO2)c1cccs1 1.58 µM
Fc1ccc(-c2nc(-c3cnccn3)no2)c(Cl)c1 0.316 µM
CCOC(=O)C1CCCN(C(=O)CCc2nnc(-c3ccc(C(C)=O)s3)o2)C1 (stereo unspecified) 0.794 µM
O=C(CNS(=O)(=O)c1cccc(Cl)c1)Nc1ccc(-c2nc3ccccc3s2)cc1 1.58 µM
O=C(Oc1ccc2ccccc2c1Br)N1CCCCCC1 0.631 µM
Cc1ccc(Nc2nc(N)nc(CSc3nccn3C)n2)cc1 1.58 µM
COc1ccc(C(=O)Nc2cc(OC)nc(OC)n2)cc1 0.794 µM
O=C(N/N=C/c1cn(-c2ccccc2)nc1-c1cc2ccccc2o1)c1c[nH]c2ccccc12 1.41 µM
CCOC(=O)C1(Cc2cccc(OC)c2)CCCN(C(=O)CNC(C)=O)C1 (stereo unspecified) 3.16 µM

Potency, inconclusive:
Oc1[nH]c2ccccc2c1N=Nc1ccc(F)cc1 5.62 µM [activator, single point]
CC(C)CNC(=S)NC(=O)c1ccc(Cl)cc1 5.62 µM [activator, single point]
O=C(c1cn(-c2ccc(Cl)c(Cl)c2)nn1)C1CC1 5.62 µM [activator, single point]
O=C(Nc1ccccc1)c1ccc(-c2ccccc2Cl)o1 3.16 µM [activator, single point]
CCc1noc(C)c1C(=O)Nc1nc2c(F)cc(F)cc2s1 3.16 µM [activator, single point]
C/C(=N\NC(=O)c1sccc1C)c1cccnc1 3.55 µM [activator, partial curve]
O=C(N/N=C/c1ccccc1[N+](=O)[O-])c1cnccn1 2.24 µM [activator, partial curve]
CC(/C=C/c1ccco1)=N/NC(=O)OC(C)(C)C 2.82 µM [activator, partial curve]
Cc1cc(C(=O)CSc2ccc(F)cc2)cc(C)c1OC(=S)N(C)C 0.447 µM [activator, full curve, poor fit]
CC1CCCN(CC(O)COc2ccc3c(c2)OCO3)C1 (stereo unspecified) 1.26 µM [activator, single point]
COc1cccc(C(=O)NCCSc2ccc(F)cc2)c1 5.01 µM [activator, partial curve, poor fit]
COc1ccc(NC(=O)c2cc(C3CC3)on2)c(OC)c1 5.62 µM [activator, single point]
Cc1ccc(NC(=O)N2CCc3ccccc3C2)c(C)c1 3.16 µM [activator, partial curve]
O=C(COc1ccccc1Cl)Nc1ccc2c(c1)OCO2 6.31 µM [activator, single point]
Cc1ccc(NC(=O)c2c(Cl)nc3ccccn23)cc1 6.31 µM [activator, single point]
CCCCC(=O)Nc1ccc2oc(-c3cccnc3)nc2c1 4.47 µM [activator, partial curve]
CCC1CCCCN1C(=O)c1cc(-c2ccc(Cl)c(Cl)c2)on1 (stereo unspecified) 2.24 µM [activator, partial curve, poor fit]
COc1ccccc1NC(=O)c1cc2ccccc2o1 4.47 µM [activator, single point]
Nc1cc(Cl)ccc1C(=O)OCC(=O)N1CCCC1 3.16 µM [activator, single point]
Cc1ccc(C(=O)Nc2ccc(C(=O)N3CCCCC3)cc2)o1 3.55 µM [activator, partial curve]
COC(=O)c1sc(NC(=S)NC(=O)c2ccc(C)cc2)nc1C 2 µM [activator, partial curve]
CC(C)(C)c1ccccc1NC(=O)c1c(O)c2cccc3c2n(c1=O)CC3 3.98 µM [activator, single point]
COc1cc(NC(=O)c2noc3c2CCCC3)c(OC)cc1Cl 1.26 µM [activator, single point]
O=C(/C=C/c1ccc(O)cc1)c1ccccc1 6.31 µM [activator, single point]
O=C(NC1CCCCC1)c1cc(-c2ccccc2O)on1 6.31 µM [activator, single point]

activation, negative = inhibition, inactive:
CCOC(=O)c1c(/N=C/N(C)C)sc(/C=N/Nc2ccccc2)c1-c1ccccc1 -0.162%
Oc1ccc(-c2nccc(-c3ccc(Br)cc3)n2)cc1 0.287% [at 1.84 µM]
CN(CC(=O)Nc1cccc(F)c1)C(=O)c1ccc(COc2ccccc2)cc1 3.32%
O=C(NCc1ccccc1F)C1CCN(S(=O)(=O)c2ccccc2)CC1 -1.64%
Cc1[nH]c2ccccc2c1C1=CN2CCS(=O)(=O)N=C2S1 -8.39%
CC(=O)c1cccc(NC(=O)NC2CCCCCCC2)c1 24.2%
CCC(=O)N(CC)C1=C(O)c2ccccc2C(=O)C1=O -0.888%
CCC1Oc2ccc(C)cc2N(CC(=O)N2CCOCC2)C1=O (stereo unspecified) -2.4%
Cc1c(C2OC(=O)C3(CCCCC3)C(=O)C2(C)C)c(=O)n(-c2ccccc2)n1C (stereo unspecified) -3.97%
CC(C)C(NC(=O)c1ccco1)C(=O)OCC(=O)c1ccccc1 (stereo unspecified) 5.95%
O=C(NCc1cccs1)c1ccccc1 -2.93%
CCn1cc(C(=O)NCC(=O)NCCCN2CCOCC2)c(=O)c2cc3c(cc21)OCO3 0.467%
CC(C)(C)n1nc2c(c1NC(=O)COc1ccc(F)cc1)CS(=O)(=O)C2 4.43%
O=C(CN1C(=O)c2ccccc2C1=O)N1CCN(C2c3ccccc3-c3ccccc32)CC1 0.236%
